# Laboratory results: the supplement of paper PMC4604168 (melanoma cell lines)
# Some of the results follow. Many values rest on one well or one pass, so single values are uncertain.
# Tested on: COLO792
# Assay: cell count relative to DMSO control; melanoma cells; higher = more viable cells
# Details: library dose: low library concentration; 72 h
# 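Note: cell number obtained by counting DAPI-stained nuclei in high-throughput microscope images with image analysis software, screen run in 1,536-well plates.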
row,SMILES,cell count
1,"CCCCCCCCc1ccc(CCC(N)(CO)CO)cc1 [fingolimod] + CN(NC(=O)CC(=O)NN(C)C(=S)c1ccccc1)C(=S)c1ccccc1 [STA4783] (first compound 2 µM, partner dose 0.006 µM)",77.9%
2,"NC(=O)c1ccc(N(C(N)=O)c2c(F)cccc2F)nc1-c1ccc(F)cc1F + COc1cc2c(Oc3ccc4[nH]c(C)cc4c3F)ncnc2cc1OCCCN1CCCC1 [cediranib] (first compound 0.4 µM, partner dose 0.4 µM)",91.5%
3,"NC(=O)c1ccc(N(C(N)=O)c2c(F)cccc2F)nc1-c1ccc(F)cc1F + O=C(Nc1cccc(Cl)c1)Nc1ncc(CCNc2ncnc3ccsc23)s1 [SNS314] (first compound 0.4 µM, partner dose 0.0008 µM)",86.7%
4,"CC(C)(C)c1cnc(CSc2cnc(NC(=O)C3CCNCC3)s2)o1 + NC(=O)Nc1cc(-c2cccc(F)c2)sc1C(=O)N[C@H]1CCCNC1 [AZD7762] (first compound 0.01 µM, partner dose 0.02 µM)",89.1%
5,"CN(NC(=O)CC(=O)NN(C)C(=S)c1ccccc1)C(=S)c1ccccc1 + COc1cc2c(Oc3ccc4[nH]c(C)cc4c3F)ncnc2cc1OCCCN1CCCC1 [cediranib] (first compound 0.006 µM, partner dose 0.4 µM)",62%
6,"CCCCCCCCc1ccc(CCC(N)(CO)CO)cc1 [fingolimod] + C[C@@H]1CCN(C(=O)CC#N)C[C@@H]1N(C)c1ncnc2[nH]ccc12 [CP690550] (first compound 2 µM, partner dose 1 µM)",97%
7,"CCCCCCCCc1ccc(CCC(N)(CO)CO)cc1 [fingolimod] + COc1cc2c(Oc3ccc4[nH]c(C)cc4c3F)ncnc2cc1OCCCN1CCCC1 [cediranib] (first compound 2 µM, partner dose 0.4 µM)",86%
8,"CC(C)(C)c1cnc(CSc2cnc(NC(=O)C3CCNCC3)s2)o1 + NCC(=O)Nc1ccc(-n2nc(C(F)(F)F)cc2-c2ccc3c(ccc4ccccc43)c2)cc1 [OSU03012] (first compound 0.01 µM, partner dose 1 µM)",90.9%
9,"CCCCCCCCc1ccc(CCC(N)(CO)CO)cc1 [fingolimod] + NCC(=O)Nc1ccc(-n2nc(C(F)(F)F)cc2-c2ccc3c(ccc4ccccc43)c2)cc1 [OSU03012] (first compound 2 µM, partner dose 1 µM)",90.2%
10,"CCCCCCCCc1ccc(CCC(N)(CO)CO)cc1 [fingolimod] + NC(=O)Nc1cc(-c2cccc(F)c2)sc1C(=O)N[C@H]1CCCNC1 [AZD7762] (first compound 2 µM, partner dose 0.02 µM)",92.4%
11,"CCCCCCCCc1ccc(CCC(N)(CO)CO)cc1 [fingolimod] + CO[C@@H]1[C@H](N(C)C(=O)c2ccccc2)C[C@H]2O[C@]1(C)n1c3ccccc3c3c4c(c5c6ccccc6n2c5c31)C(=O)NC4 [Midostaurin] (first compound 2 µM, partner dose 0.08 µM)",80.8%
12,"Cc1ccc(NC(=O)c2cccc(N(C)C)c2)cc1NC(=O)c1ccc(O)cc1 + CN(C)S(=O)(=O)c1ccc2c(c1)/C(=C/c1cc3c([nH]1)CCCC3)C(=O)N2 [SU6656] (first compound 2 µM, partner dose 0.4 µM)",101%
13,"NC(=O)c1ccc(N(C(N)=O)c2c(F)cccc2F)nc1-c1ccc(F)cc1F + OCCn1cc(-c2cnc3nnn(Cc4ccc5ncccc5c4)c3n2)cn1 [PF04217903] (first compound 0.4 µM, partner dose 1 µM)",87%
14,"CC(C)(C)c1cnc(CSc2cnc(NC(=O)C3CCNCC3)s2)o1 + Cc1cc(N2CCOCC2)cc2[nH]c(-c3c(NC[C@@H](O)c4cccc(Cl)c4)cc[nH]c3=O)nc12 [BMS536924] (first compound 0.01 µM, partner dose 0.2 µM)",82.2%
15,"NC(=O)c1ccc(N(C(N)=O)c2c(F)cccc2F)nc1-c1ccc(F)cc1F + NCC(=O)Nc1ccc(-n2nc(C(F)(F)F)cc2-c2ccc3c(ccc4ccccc43)c2)cc1 [OSU03012] (first compound 0.4 µM, partner dose 1 µM)",103%

# Tested on: COLO800
# Assay: as above
# Details: library dose: low library concentration; 72 h
row,SMILES,cell count
1,"NC(=O)c1ccc(N(C(N)=O)c2c(F)cccc2F)nc1-c1ccc(F)cc1F + Cn1cncc1[C@@](N)(c1ccc(Cl)cc1)c1ccc2c(c1)c(-c1cccc(Cl)c1)cc(=O)n2C [tipifarnib] (first compound 0.4 µM, partner dose 0.01 µM)",105%
2,"NC(=O)c1ccc(N(C(N)=O)c2c(F)cccc2F)nc1-c1ccc(F)cc1F + CO[C@@H]1[C@H](N(C)C(=O)c2ccccc2)C[C@H]2O[C@]1(C)n1c3ccccc3c3c4c(c5c6ccccc6n2c5c31)C(=O)NC4 [Midostaurin] (first compound 0.4 µM, partner dose 0.08 µM)",119%
3,"NC(=O)c1ccc(N(C(N)=O)c2c(F)cccc2F)nc1-c1ccc(F)cc1F + CN(NC(=O)CC(=O)NN(C)C(=S)c1ccccc1)C(=S)c1ccccc1 [STA4783] (first compound 0.4 µM, partner dose 0.006 µM)",44.7%
4,"Cc1ccc(NC(=O)c2cccc(N(C)C)c2)cc1NC(=O)c1ccc(O)cc1 + O=C(O)c1ccc(-c2c[nH]c3ncc(-c4ccccc4)cc23)cc1C1CCCC1 [GSK650394] (first compound 2 µM, partner dose 0.16 µM)",142%
5,"NC(=O)c1ccc(N(C(N)=O)c2c(F)cccc2F)nc1-c1ccc(F)cc1F + Cc1cc(N2CCOCC2)cc2[nH]c(-c3c(NC[C@@H](O)c4cccc(Cl)c4)cc[nH]c3=O)nc12 [BMS536924] (first compound 0.4 µM, partner dose 0.2 µM)",33.1%
6,"NC(=O)c1ccc(N(C(N)=O)c2c(F)cccc2F)nc1-c1ccc(F)cc1F + COc1cc(Nc2ncc(F)c(Nc3ccc4c(n3)NC(=O)C(C)(C)O4)n2)cc(OC)c1OC [Tamatinib] (first compound 0.4 µM, partner dose 0.4 µM)",83.5%
7,"CCCCCCCCc1ccc(CCC(N)(CO)CO)cc1 [fingolimod] + CN(C)S(=O)(=O)c1ccc2c(c1)/C(=C/c1cc3c([nH]1)CCCC3)C(=O)N2 [SU6656] (first compound 2 µM, partner dose 0.4 µM)",100%
8,"CCCCCCCCc1ccc(CCC(N)(CO)CO)cc1 [fingolimod] + OCCn1cc(-c2cnc3nnn(Cc4ccc5ncccc5c4)c3n2)cn1 [PF04217903] (first compound 2 µM, partner dose 1 µM)",149%
9,"NC(=O)c1ccc(N(C(N)=O)c2c(F)cccc2F)nc1-c1ccc(F)cc1F + NC(=O)Nc1cc(-c2cccc(F)c2)sc1C(=O)N[C@H]1CCCNC1 [AZD7762] (first compound 0.4 µM, partner dose 0.02 µM)",133%
10,"NC(=O)c1ccc(N(C(N)=O)c2c(F)cccc2F)nc1-c1ccc(F)cc1F + O=C(O)c1ccc(-c2c[nH]c3ncc(-c4ccccc4)cc23)cc1C1CCCC1 [GSK650394] (first compound 0.4 µM, partner dose 0.16 µM)",144%
11,"CCCCCCCCc1ccc(CCC(N)(CO)CO)cc1 [fingolimod] + COc1cc(Nc2ncc(F)c(Nc3ccc4c(n3)NC(=O)C(C)(C)O4)n2)cc(OC)c1OC [Tamatinib] (first compound 2 µM, partner dose 0.4 µM)",91.1%
12,"CC(C)(C)c1cnc(CSc2cnc(NC(=O)C3CCNCC3)s2)o1 + O=C(Nc1cccc(Cl)c1)Nc1ncc(CCNc2ncnc3ccsc23)s1 [SNS314] (first compound 0.01 µM, partner dose 0.0008 µM)",77%
13,"Cc1ccc(NC(=O)c2cccc(N(C)C)c2)cc1NC(=O)c1ccc(O)cc1 + COc1cc2c(Oc3ccc4[nH]c(C)cc4c3F)ncnc2cc1OCCCN1CCCC1 [cediranib] (first compound 2 µM, partner dose 0.4 µM)",96.1%
14,"NC(=O)c1ccc(N(C(N)=O)c2c(F)cccc2F)nc1-c1ccc(F)cc1F + C[C@@H]1CCN(C(=O)CC#N)C[C@@H]1N(C)c1ncnc2[nH]ccc12 [CP690550] (first compound 0.4 µM, partner dose 1 µM)",97.4%
15,"NC(=O)c1ccc(N(C(N)=O)c2c(F)cccc2F)nc1-c1ccc(F)cc1F + CC(C)(C)c1cnc(CSc2cnc(NC(=O)C3CCNCC3)s2)o1 [SNS-032] (first compound 0.4 µM, partner dose 0.01 µM)",72.1%
16,"CCCCCCCCc1ccc(CCC(N)(CO)CO)cc1 [fingolimod] + CC1(C)NC(=O)N(c2ccc([N+](=O)[O-])c(C(F)(F)F)c2)C1=O [nilutamide] (first compound 2 µM, partner dose 1 µM)",90.5%
17,"Cc1ccc(NC(=O)c2cccc(N(C)C)c2)cc1NC(=O)c1ccc(O)cc1 + CO[C@@H]1[C@H](N(C)C(=O)c2ccccc2)C[C@H]2O[C@]1(C)n1c3ccccc3c3c4c(c5c6ccccc6n2c5c31)C(=O)NC4 [Midostaurin] (first compound 2 µM, partner dose 0.08 µM)",106%
18,"CCCCCCCCc1ccc(CCC(N)(CO)CO)cc1 [fingolimod] + Cc1cc(N2CCOCC2)cc2[nH]c(-c3c(NC[C@@H](O)c4cccc(Cl)c4)cc[nH]c3=O)nc12 [BMS536924] (first compound 2 µM, partner dose 0.2 µM)",66%
